Some of the results follow.
Assays:
HSkMC = human skeletal muscle cells; experiment: cytotoxicity call (relative viability < 0.9); conditions: 10 µM
HepG2 = experiment: cytotoxicity call (relative viability < 0.9); conditions: 10 µM
S. aureus RN4220 = experiment: growth inhibition call (relative growth <= 0.2); conditions: 50 µM

C[C@@H]1CN([C@H](C)CO)C(=O)Cc2cc(NS(C)(=O)=O)ccc2O[C@H]1CN(C)C(=O)NC1CCCCC1
cytotoxicity call (HSkMC): inactive | cytotoxicity call (HepG2): inactive | growth inhibition call (S. aureus RN4220): inactive

C[C@H](CO)N1C[C@H](C)[C@@H](CN(C)C(=O)Nc2ccc(C(F)(F)F)cc2)Oc2ccc(NC(=O)Nc3ccc4c(c3)OCO4)cc2CC1=O
cytotoxicity call (HSkMC): inactive | cytotoxicity call (HepG2): inactive | growth inhibition call (S. aureus RN4220): inactive

C[C@@H]1CCCCO[C@@H](CN(C)S(=O)(=O)c2cccs2)[C@H](C)CN([C@@H](C)CO)C(=O)c2cc(NC(=O)NC3CCCCC3)ccc2O1
cytotoxicity call (HSkMC): inactive | cytotoxicity call (HepG2): inactive | growth inhibition call (S. aureus RN4220): inactive

COc1ccc(S(=O)(=O)Nc2ccc3c(c2)C(=O)N([C@H](C)CO)C[C@H](C)[C@H](CN(C)C(=O)Nc2cccc4ccccc24)OCCCC[C@H](C)O3)cc1
cytotoxicity call (HSkMC): inactive | cytotoxicity call (HepG2): inactive | growth inhibition call (S. aureus RN4220): inactive

O=C(C[C@@H]1CC[C@@H]2[C@H](COC[C@@H](O)CN2S(=O)(=O)c2ccccc2)O1)N1CCc2ccccc2C1
cytotoxicity call (HSkMC): inactive | cytotoxicity call (HepG2): inactive | growth inhibition call (S. aureus RN4220): inactive

C[C@@H]1CN([C@@H](C)CO)C(=O)Cc2cc(NC(=O)c3ccncc3)ccc2O[C@H]1CN(C)S(=O)(=O)c1ccc(Cl)cc1
cytotoxicity call (HSkMC): inactive | cytotoxicity call (HepG2): inactive | growth inhibition call (S. aureus RN4220): inactive

C[C@H]1CN([C@@H](C)CO)S(=O)(=O)c2ccc(C#Cc3ccncc3)cc2O[C@H]1CN(C)C(=O)C1CCCCC1
cytotoxicity call (HSkMC): inactive | cytotoxicity call (HepG2): inactive | growth inhibition call (S. aureus RN4220): inactive

C[C@@H]1CN([C@H](C)CO)S(=O)(=O)c2ccc(-c3cncnc3)cc2O[C@@H]1CN(C)C(=O)Cc1ccncc1
cytotoxicity call (HSkMC): inactive | cytotoxicity call (HepG2): inactive | growth inhibition call (S. aureus RN4220): inactive

C[C@H](CO)N1C[C@H](C)[C@H](CN(C)C(=O)Cc2ccccn2)Oc2ncc(-c3ccc(F)cc3)cc2C1=O
cytotoxicity call (HSkMC): inactive | cytotoxicity call (HepG2): inactive | growth inhibition call (S. aureus RN4220): inactive

COc1ccc(NC(=O)Nc2ccc3c(c2)C(=O)N([C@H](C)CO)C[C@H](C)[C@H](CN(C)C(=O)Nc2cccc4ccccc24)OCCCC[C@@H](C)O3)cc1
cytotoxicity call (HSkMC): inactive | cytotoxicity call (HepG2): inactive | growth inhibition call (S. aureus RN4220): inactive

CCNC(=O)[C@H]1N[C@H]2c3ccc(-c4cccc(C(=O)N(C)C)c4)c(=O)n3C[C@H]2[C@@H]1CO
cytotoxicity call (HSkMC): inactive | cytotoxicity call (HepG2): inactive | growth inhibition call (S. aureus RN4220): inactive

Clc1ccc(-c2onc3cc(-c4ccccc4)ccc23)cc1
cytotoxicity call (HSkMC): inactive | cytotoxicity call (HepG2): active | growth inhibition call (S. aureus RN4220): inactive

COc1ccc(S(=O)(=O)N(C)C[C@@H]2Oc3ncc(-c4ccncc4)cc3C(=O)N([C@@H](C)CO)C[C@@H]2C)cc1
cytotoxicity call (HSkMC): inactive | cytotoxicity call (HepG2): inactive | growth inhibition call (S. aureus RN4220): inactive

O=C(O)c1cc(O)c2c(O)c3c(O[C@H]4O[C@H](CO)[C@@H](O)[C@H](O)[C@H]4O)cccc3c(-c3c4cc(C(=O)O)cc(O)c4c(O)c4c(O[C@H]5O[C@H](CO)[C@@H](O)[C@H](O)[C@H]5O)cccc34)c2c1
cytotoxicity call (HSkMC): inactive | cytotoxicity call (HepG2): active | growth inhibition call (S. aureus RN4220): inactive

O=C(O)c1cc(=O)cc(C(=O)O)o1
cytotoxicity call (HSkMC): inactive | cytotoxicity call (HepG2): inactive | growth inhibition call (S. aureus RN4220): inactive

COc1ccc(NC(=O)N(C)C[C@@H]2Oc3ccc(NC(=O)C4CC4)cc3C(=O)N([C@@H](C)CO)C[C@@H]2C)cc1
cytotoxicity call (HSkMC): inactive | cytotoxicity call (HepG2): inactive | growth inhibition call (S. aureus RN4220): inactive

O=C1N[C@@H](Cc2c[nH]c3ccccc23)COC(=O)[C@@H](Cc2ccc(F)cc2)CC=CC[C@@H]1CC(=O)N(CCO)Cc1ccccc1
cytotoxicity call (HSkMC): inactive | cytotoxicity call (HepG2): active | growth inhibition call (S. aureus RN4220): inactive

C[C@@H]1CCCCO[C@H](CN(C)S(=O)(=O)c2ccc(Cl)cc2)[C@H](C)CN([C@@H](C)CO)C(=O)c2cc(NS(=O)(=O)c3cccs3)ccc2O1
cytotoxicity call (HSkMC): inactive | cytotoxicity call (HepG2): inactive | growth inhibition call (S. aureus RN4220): inactive

Cc1ccc(S(=O)(=O)N(C)C[C@H]2OCCCC[C@H](C)Oc3ccc(NC(=O)Nc4ccc(C(F)(F)F)cc4)cc3C(=O)N([C@@H](C)CO)C[C@H]2C)cc1
cytotoxicity call (HSkMC): inactive | cytotoxicity call (HepG2): inactive | growth inhibition call (S. aureus RN4220): inactive

Cc1noc(C)c1NC(=O)N(C)C[C@@H]1OCCCC[C@@H](C)Oc2ccc(NC(=O)Nc3ccc(F)cc3)cc2C(=O)N([C@H](C)CO)C[C@H]1C
cytotoxicity call (HSkMC): inactive | cytotoxicity call (HepG2): inactive | growth inhibition call (S. aureus RN4220): inactive

COCC#Cc1ccc2c(c1)O[C@@H](CN(C)Cc1ccc3c(c1)OCO3)[C@@H](C)CN([C@H](C)CO)S2(=O)=O
cytotoxicity call (HSkMC): inactive | cytotoxicity call (HepG2): inactive | growth inhibition call (S. aureus RN4220): inactive

Cc1ccc(S(=O)(=O)N(C)C[C@H]2Oc3ccc(NC(=O)NC(C)C)cc3CC(=O)N([C@H](C)CO)C[C@@H]2C)cc1
cytotoxicity call (HSkMC): inactive | cytotoxicity call (HepG2): inactive | growth inhibition call (S. aureus RN4220): inactive

C[C@@H]1CN([C@H](C)CO)C(=O)c2cc(NC(=O)C3CCCCC3)ccc2O[C@@H](C)CCCCO[C@H]1CN(C)C(=O)C1CCCCC1
cytotoxicity call (HSkMC): inactive | cytotoxicity call (HepG2): inactive | growth inhibition call (S. aureus RN4220): inactive

C[C@H]1COC(=O)[C@@H](NC(=O)OCC2c3ccccc3-c3ccccc32)CC=CC[C@@H](CC(=O)NCCO)C(=O)N1
cytotoxicity call (HSkMC): inactive | cytotoxicity call (HepG2): inactive | growth inhibition call (S. aureus RN4220): inactive

O=C(CCCN1CCC(O)(c2ccc(Cl)cc2)CC1)c1ccc(F)cc1
cytotoxicity call (HSkMC): inactive | cytotoxicity call (HepG2): active | growth inhibition call (S. aureus RN4220): inactive

COCC#Cc1ccc2c(c1)O[C@@H](CN(C)C(=O)CN(C)C)[C@H](C)CN([C@H](C)CO)S2(=O)=O
cytotoxicity call (HSkMC): inactive | cytotoxicity call (HepG2): inactive | growth inhibition call (S. aureus RN4220): inactive

CNC[C@H]1OCCCC[C@@H](C)Oc2ccc(NC(=O)c3ccncc3)cc2C(=O)N([C@@H](C)CO)C[C@@H]1C
cytotoxicity call (HSkMC): inactive | cytotoxicity call (HepG2): inactive | growth inhibition call (S. aureus RN4220): inactive

C[C@@H]1CN([C@H](C)CO)C(=O)c2cc(C#CCc3ccccc3)cnc2O[C@H]1CN(C)CC1CCOCC1
cytotoxicity call (HSkMC): inactive | cytotoxicity call (HepG2): inactive | growth inhibition call (S. aureus RN4220): inactive

C[C@@H]1CCCCO[C@@H](CN(C)CC2CCCCC2)[C@H](C)CN([C@H](C)CO)C(=O)c2cc(NC(=O)Nc3ccc(F)cc3)ccc2O1
cytotoxicity call (HSkMC): inactive | cytotoxicity call (HepG2): active | growth inhibition call (S. aureus RN4220): inactive

C[C@@H]1CN([C@@H](C)CO)C(=O)c2cc(NC(=O)NC3CCCCC3)ccc2O[C@@H](C)CCCCO[C@@H]1CN(C)C(=O)Cc1ccccc1
cytotoxicity call (HSkMC): inactive | cytotoxicity call (HepG2): inactive | growth inhibition call (S. aureus RN4220): inactive

Cc1noc(C)c1S(=O)(=O)Nc1ccc2c(c1)C(=O)N([C@H](C)CO)C[C@@H](C)[C@@H](CN(C)C(=O)Nc1ccccc1)O2
cytotoxicity call (HSkMC): inactive | cytotoxicity call (HepG2): inactive | growth inhibition call (S. aureus RN4220): inactive

COc1ccc(S(=O)(=O)Nc2cccc3c2O[C@@H](CN(C)S(=O)(=O)c2cn(C)cn2)[C@@H](C)CN([C@H](C)CO)C3=O)cc1
cytotoxicity call (HSkMC): inactive | cytotoxicity call (HepG2): inactive | growth inhibition call (S. aureus RN4220): inactive

C[C@@H]1CN([C@H](C)CO)C(=O)c2cc(C#CC3(O)CCCC3)cnc2O[C@@H]1CN(C)S(C)(=O)=O
cytotoxicity call (HSkMC): inactive | cytotoxicity call (HepG2): inactive | growth inhibition call (S. aureus RN4220): inactive

C[C@@H]1CN([C@H](C)CO)C(=O)c2cc(N(C)C)ccc2O[C@@H](C)CCCCO[C@@H]1CN(C)Cc1ccc(C(F)(F)F)cc1
cytotoxicity call (HSkMC): inactive | cytotoxicity call (HepG2): inactive | growth inhibition call (S. aureus RN4220): inactive

C[C@H](O)C#Cc1cnc2c(c1)C(=O)N([C@@H](C)CO)C[C@@H](C)[C@H](CN(C)C(=O)CN1CCOCC1)O2
cytotoxicity call (HSkMC): inactive | cytotoxicity call (HepG2): inactive | growth inhibition call (S. aureus RN4220): inactive

NCCCCCNC(=O)[C@@H]1C[C@@H]2C(=O)N[C@@H](CCCCN)C(=O)N2[C@@H]1c1cccc(OCCO)c1
cytotoxicity call (HSkMC): inactive | cytotoxicity call (HepG2): inactive | growth inhibition call (S. aureus RN4220): inactive

CCOc1nn(CC)cc1C(=O)O
cytotoxicity call (HSkMC): inactive | cytotoxicity call (HepG2): inactive | growth inhibition call (S. aureus RN4220): inactive

C[C@@H]1CN([C@H](C)CO)C(=O)c2cc(NC(=O)c3ccncc3)ccc2O[C@@H]1CN(C)S(=O)(=O)c1cccs1
cytotoxicity call (HSkMC): inactive | cytotoxicity call (HepG2): inactive | growth inhibition call (S. aureus RN4220): inactive

C[C@@H]1CCCCO[C@@H](CN(C)CC2CCCCC2)[C@H](C)CN([C@@H](C)CO)C(=O)c2cc(NC(=O)CCCCCC(=O)Nc3ccccc3N)ccc2O1
cytotoxicity call (HSkMC): inactive | cytotoxicity call (HepG2): inactive | growth inhibition call (S. aureus RN4220): inactive

COCC(=O)N1CC[C@]2(CC1)CN([C@@H](CO)c1[nH]c3cc(ccc3c12)OC)C(=O)Nc1ccccc1F
cytotoxicity call (HSkMC): inactive | cytotoxicity call (HepG2): inactive | growth inhibition call (S. aureus RN4220): inactive

C[C@@H]1CCCCO[C@@H](CN(C)S(=O)(=O)c2ccc(Cl)cc2)[C@H](C)CN([C@@H](C)CO)C(=O)c2cc(NC(=O)C3CCCCC3)ccc2O1
cytotoxicity call (HSkMC): inactive | cytotoxicity call (HepG2): inactive | growth inhibition call (S. aureus RN4220): inactive

COc1ccc(NC(=O)N(C)C[C@@H]2OCCCC[C@H](C)Oc3ccc(NC(=O)C4CCCCC4)cc3C(=O)N([C@@H](C)CO)C[C@@H]2C)cc1
cytotoxicity call (HSkMC): inactive | cytotoxicity call (HepG2): inactive | growth inhibition call (S. aureus RN4220): inactive

COC(=O)[C@H](Cc1ccc(-n2cc(CCC(=O)NO)nn2)cc1)N1CC(/C=C/[C@@H](O)Cc2ccccc2)=C[C@@H](C2CC2)O1
cytotoxicity call (HSkMC): inactive | cytotoxicity call (HepG2): inactive | growth inhibition call (S. aureus RN4220): inactive

CSc1scc(-c2cc(Cl)cc(Cl)c2)c1C#N
cytotoxicity call (HSkMC): inactive | cytotoxicity call (HepG2): inactive | growth inhibition call (S. aureus RN4220): inactive

C[C@@H]1CN([C@H](C)CO)C(=O)Cc2cc(NS(C)(=O)=O)ccc2O[C@@H]1CN(C)S(=O)(=O)c1cn(C)cn1
cytotoxicity call (HSkMC): inactive | cytotoxicity call (HepG2): inactive | growth inhibition call (S. aureus RN4220): inactive

Cc1ccc(S(=O)(=O)N2C[C@@H](O)COC[C@@H]3O[C@H](CC(=O)NCCCN(C)C)CC[C@H]32)cc1
cytotoxicity call (HSkMC): inactive | cytotoxicity call (HepG2): inactive | growth inhibition call (S. aureus RN4220): inactive

Nc1ccc(S(=O)(=O)Nc2ncccn2)cc1
cytotoxicity call (HSkMC): inactive | cytotoxicity call (HepG2): inactive | growth inhibition call (S. aureus RN4220): inactive

Cc1noc(C)c1S(=O)(=O)Nc1ccc2c(c1)CC(=O)N([C@H](C)CO)C[C@@H](C)[C@@H](CN(C)C(=O)Nc1ccc3c(c1)OCO3)O2
cytotoxicity call (HSkMC): inactive | cytotoxicity call (HepG2): inactive | growth inhibition call (S. aureus RN4220): inactive

COCC(=O)N(C)C[C@@H]1Oc2cc(C#C[C@H](C)O)ccc2S(=O)(=O)N([C@H](C)CO)C[C@@H]1C
cytotoxicity call (HSkMC): inactive | cytotoxicity call (HepG2): inactive | growth inhibition call (S. aureus RN4220): inactive

COc1ccc(NC(=O)Nc2cccc3c2O[C@H](CN(C)Cc2ccc(Oc4ccccc4)cc2)[C@@H](C)CN([C@H](C)CO)C3=O)cc1
cytotoxicity call (HSkMC): inactive | cytotoxicity call (HepG2): inactive | growth inhibition call (S. aureus RN4220): inactive

NCc1ccccc1Cn1cccn1
cytotoxicity call (HSkMC): inactive | cytotoxicity call (HepG2): inactive | growth inhibition call (S. aureus RN4220): inactive

C[C@@H]1CN([C@@H](C)CO)S(=O)(=O)c2ccc(C#Cc3cccnc3)cc2O[C@H]1CN(C)C(=O)CN(C)C
cytotoxicity call (HSkMC): inactive | cytotoxicity call (HepG2): inactive | growth inhibition call (S. aureus RN4220): inactive

C[C@H]1CN([C@@H](C)CO)C(=O)Cc2cc(N(C)C)ccc2O[C@@H]1CN(C)S(=O)(=O)c1ccc(F)cc1
cytotoxicity call (HSkMC): inactive | cytotoxicity call (HepG2): inactive | growth inhibition call (S. aureus RN4220): inactive
